The campaign covered roughly 150,000 compounds. About 540 (0.36%) showed an effect of 50% or more. The list shows a part of the results.
These molecules were tested on Plasmodium falciparum (assay: Primary screen in NF54 nanoGlo assay, in single point, at 2uM, 72h; a lower Z score goes with more inhibition). Details: timepoint 72 hour.
Format: functional, Erythrocyte
In the case of `O=C(NC(C1CC1)C1CC1)c1cncc(Br)c1`, the “% Inhibition” value was -3% and the Z score was 0.53. `Cc1nn(-c2ccccc2)c(Cl)c1[C@H]1Nc2ccccc2C(=O)N1c1ccccc1` was tested, and the “% Inhibition” value was -24% and the Z score was 2.86. In the case of `CC(C)n1cc(CNCCC(=O)Nc2cccnc2)cn1`, the “% Inhibition” value was -9% and the Z score was 0.82. In the case of `CC[C@H](C)NC(=O)CCc1nnc(C(=O)Nc2ccc(F)cc2)s1`, the “% Inhibition” value was -1% and the Z score was 0.27. In the case of `CCCC1(C)C(=O)NCCN1C(=O)c1cc(N2CC(C)OC(C)C2)ccn1` (stereo unspecified), the “% Inhibition” value was -33% and the Z score was 3.87. In the case of `COc1ccccc1CNC(=O)C[C@H]1CCCN(c2cnn(C)c(=O)c2)C1`, the “% Inhibition” value was -1% and the Z score was 0.09. In the case of `CN1CCC(n2ccc(NC(=O)N(C)Cc3ccc(F)cc3F)n2)CC1`, the “% Inhibition” value was 3% and the Z score was -0.38. With `CN(C)c1ccnc(NC(=O)NCC(F)(F)C(F)F)n1` the “% Inhibition” value was 1% and the Z score was -0.21. `CC(=O)N1CCN(CC[C@H]2CN(C(=O)NC3CCCCC3)CC[C@H]2CC(=O)OC(C)(C)C)CC1` was tested, and the “% Inhibition” value was -6% and the Z score was 0.87. In the case of `COC(CN(C)Cc1ncnn1C)OC`, the “% Inhibition” value was -8% and the Z score was 1.24. With `O=S(=O)(Nc1cccnc1)N1CCCCC1` the “% Inhibition” value was 3% and the Z score was -0.34. With `COc1ccc(CCNC(=O)N2CCC3(CC2)CN(C)CCN3C)cc1` the “% Inhibition” value was 0% and the Z score was -0.03. In the case of `C=CCC[C@H](O)CN(C)c1cnn(C)c1`, the “% Inhibition” value was 14% and the Z score was -1.54. With `CCCCN(C)C(=O)c1snc2c(=O)n(CC(C)C)c(=O)[nH]c12` the “% Inhibition” value was 6% and the Z score was -1.04. With `CN1C(=O)NC(C)(C2CCCN(CCC3CCCC3)C2)C1=O` (stereo unspecified) the “% Inhibition” value was 1% and the Z score was -0.17. `CCCn1cnnc1CN(C)C(=O)Cn1cccc(OC)c1=O` was tested, and the “% Inhibition” value was -11% and the Z score was 2.11. In the case of `CC(NC(=O)CC1CC2CCC1C2)c1nncn1C` (stereo unspecified), the “% Inhibition” value was -9% and the Z score was 1.53. For `NC(=O)c1ccc(N[C@@H](C(=O)N2CCCCC2)c2ccccc2)cc1`, the “% Inhibition” value was -6% and the Z score was 1. In the case of `Cc1ccc(S(=O)(=O)N[C@H]2CCN(C3CCCC3)C2)c(C)c1`, the “% Inhibition” value was -7% and the Z score was 0.68. With `Cc1nn(C)c(C)c1NC(=O)Cn1cnc2ccccc2c1=O` the “% Inhibition” value was -1% and the Z score was 0.18. `CN[C@H]1CCCN(C(=O)NCc2cccnc2C)c2ccccc21` was tested, and the “% Inhibition” value was -13% and the Z score was 2.37. `CN(C)CC(=O)NCC1(N2CCOC(C)(C)C2)CCCCC1` was tested, and the “% Inhibition” value was 2% and the Z score was -0.27. In the case of `Cc1n[nH]c(C)c1S(=O)(=O)N1CC[C@@](O)(C2CCOCC2)[C@H](C)C1`, the “% Inhibition” value was -10% and the Z score was 1.97. For `CCN1CC2(CCN(Cc3ccc(OCC(N)=O)c(OC)c3)CC2)OC1=O`, the “% Inhibition” value was -10% and the Z score was 1.94. With `O=c1cc(Nc2ccccc2)c2ccccc2[nH]1` the “% Inhibition” value was -6% and the Z score was 0.84. With `COc1cc2c(cc1-c1nccn1CCN1CCCC1)CCC2` the “% Inhibition” value was 5% and the Z score was -0.82. With `COc1cccc(N2CCN(C(=O)c3ccc(C)nc3C3CCN(Cc4ccc(C(F)(F)F)cc4)CC3)CC2)c1` the “% Inhibition” value was -11% and the Z score was 2.15. `Cn1ccnc1CC(=O)c1ccc(Cl)cc1` was tested, and the “% Inhibition” value was -21% and the Z score was 2.45. With `CCOc1c(CN(C)C(=O)Cn2nc(C)cc2N)cccc1OC` the “% Inhibition” value was -8% and the Z score was 1.47. With `O=C(Nc1ccccc1Cl)N1C[C@@H]2C[C@H](NS(=O)(=O)c3cccs3)[C@H]1C2` the “% Inhibition” value was 25% and the Z score was -2.81. For `Cc1c(CN2CCC(n3nccc3NC(=O)[C@H]3CCOC3)CC2)[nH]c2ccccc12`, the “% Inhibition” value was -11% and the Z score was 1.01. In the case of `CC(C)Cc1noc(CN(CCO)C2CS(=O)(=O)CC2O)n1` (stereo unspecified), the “% Inhibition” value was -14% and the Z score was 1.83. With `CCC12OC3C(O)C4CC3C1C4C(=O)N2c1ccc(OC)cc1` (stereo unspecified) the “% Inhibition” value was -8% and the Z score was 1.3. In the case of `CCNC(=NCc1cc(-c2ccccc2)on1)NCC`, the “% Inhibition” value was -3% and the Z score was 0.25. `C[C@H]1Cc2[nH]ncc2CN(S(=O)(=O)c2cnn(C3CCCC3)c2)C1` was tested, and the “% Inhibition” value was -11% and the Z score was 1.74. In the case of `COc1ccccc1NS(=O)(=O)c1ccc2c(c1)CCCN2C(=O)C1CCC1`, the “% Inhibition” value was -1% and the Z score was 0.15. `CC(C)(C)CNc1cccc(C(=O)N2CCC[C@@H]2CO)n1` was tested, and the “% Inhibition” value was 0% and the Z score was 0.05. In the case of `O=C1CCN(c2cc(C(F)(F)F)nc(-c3ccncc3)n2)CCN1`, the “% Inhibition” value was -2% and the Z score was 0.39. `Cc1ncn(C)c1C(=O)N1CCC(Oc2ccc(Cl)cc2)CC1` was tested, and the “% Inhibition” value was -6% and the Z score was 1.07. With `COc1ccc(NC(=O)N2CC(C)(C)C2(C)C)cc1OC` the “% Inhibition” value was -8% and the Z score was 0.88. In the case of `Cc1noc(C)c1C(=O)N1CCO[C@H](c2cccnc2)C1`, the “% Inhibition” value was -6% and the Z score was 1.09. `Cc1n[nH]cc1CNCc1cccc(S(=O)(=O)N2CCCCC2)c1` was tested, and the “% Inhibition” value was -8% and the Z score was 0.78. `CC(=O)c1cn(CC(=O)N(C)c2ccccc2)c(=O)n(C)c1=O` was tested, and the “% Inhibition” value was -14% and the Z score was 1.94.

— ChEMBL document CHEMBL4888484, “Replenishing the malaria drug discovery pipeline: Screening and hit evaluation of the MMV Hit Generation Library 1 (HGL1) against asexual blood stage Plasmodium falciparum ,using a nano luciferase reporter read-out” (2022)
